Experimental data published in article PMC4336329 (PLoS ONE, 2015).
Among all 310,000 compounds or so, about 2,200 (0.71%) showed an effect of 50% or more. The effect is printed as a negative number. This is one part of the list.

The molecules below were run against human ether-à-go-go-related gene (hERG) potassium channel (human, UniProt Q12809) (assay: primary screen, population patch clamp on CHO cells stably expressing hERG).
human ether-à-go-go-related gene (hERG) potassium channel, sequence (Q12809 whole entry, looked up): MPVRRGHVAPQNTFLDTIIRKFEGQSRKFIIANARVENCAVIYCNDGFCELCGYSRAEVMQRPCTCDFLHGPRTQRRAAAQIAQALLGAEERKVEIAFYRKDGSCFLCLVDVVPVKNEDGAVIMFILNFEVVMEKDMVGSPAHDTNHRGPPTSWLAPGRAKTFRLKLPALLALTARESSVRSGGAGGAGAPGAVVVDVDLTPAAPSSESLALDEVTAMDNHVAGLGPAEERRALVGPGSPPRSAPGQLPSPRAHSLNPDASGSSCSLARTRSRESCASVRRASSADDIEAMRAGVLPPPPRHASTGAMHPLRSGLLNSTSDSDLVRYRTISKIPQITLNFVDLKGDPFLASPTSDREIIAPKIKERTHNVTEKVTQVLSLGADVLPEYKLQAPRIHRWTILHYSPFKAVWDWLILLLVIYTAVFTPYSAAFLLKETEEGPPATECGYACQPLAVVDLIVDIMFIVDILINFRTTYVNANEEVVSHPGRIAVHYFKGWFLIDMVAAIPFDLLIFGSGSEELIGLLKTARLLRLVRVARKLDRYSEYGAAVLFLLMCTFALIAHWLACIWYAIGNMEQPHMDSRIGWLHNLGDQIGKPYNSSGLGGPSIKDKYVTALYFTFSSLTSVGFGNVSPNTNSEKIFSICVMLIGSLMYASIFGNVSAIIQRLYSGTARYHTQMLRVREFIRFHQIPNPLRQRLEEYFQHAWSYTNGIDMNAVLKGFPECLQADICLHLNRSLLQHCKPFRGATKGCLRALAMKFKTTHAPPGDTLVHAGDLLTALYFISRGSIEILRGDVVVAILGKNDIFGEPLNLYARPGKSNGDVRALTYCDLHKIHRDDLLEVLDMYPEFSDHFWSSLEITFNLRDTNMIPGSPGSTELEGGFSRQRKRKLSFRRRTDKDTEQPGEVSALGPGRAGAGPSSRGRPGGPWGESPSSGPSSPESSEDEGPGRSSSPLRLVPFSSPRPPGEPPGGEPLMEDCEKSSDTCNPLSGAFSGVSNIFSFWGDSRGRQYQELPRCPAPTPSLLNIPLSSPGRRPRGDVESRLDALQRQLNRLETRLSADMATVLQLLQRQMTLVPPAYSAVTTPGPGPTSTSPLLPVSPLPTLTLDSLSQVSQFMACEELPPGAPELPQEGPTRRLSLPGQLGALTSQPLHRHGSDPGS

Compound | hERG current change (%, negative = inhibition) at 1uM [%]
CCOC(=O)c1cncc(C#CCOC(=O)Nc2ccc(OC(F)(F)F)cc2)c1 | 13.6
CCN1CCCC(OC(=O)c2cc(-c3ccccc3Cl)nc3ccccc23)C1.Cl (stereo not shown) | -7.48
Cn1c(NC(=O)c2ccc(Br)o2)cc(=O)n(C)c1=O | 6.16
CCC(C)NC(=O)C1(O)c2cc(Br)ccc2NC(=O)N1c1cccc(OC)c1 (stereo not shown) | 13
O=C(NNC(=O)c1cccs1)c1ccc(Cl)nc1 | 2.47
O=C(COC(=O)/C=C/c1ccc2c(c1)OCO2)NC1CC1 | 6.45
COC(=O)C(C(=O)OC)c1ncc(C(F)(F)F)cc1Cl | 20.9
O=C(Nc1nnc(-c2cc(Cl)ccc2Cl)o1)C1=COCCO1 | 10.3
CC(C)Cc1nn2c(=O)cc(COc3ccc(NC(=O)c4ccco4)cc3)nc2s1 | 4.41
Cc1csc(NC(=O)c2nc(-c3ccccc3)n(-c3ccccc3)n2)n1 | -45.2
CCOC(=O)C(=Cc1ccc(Br)cc1)C(=O)OCC | 11.1
CCC(=NCCN1CCNCC1)C1=C(O)CC(C)(C)CC1=O | 10.2
CCc1ccc(NC(=O)CCS(=O)(=O)c2cccc3nsnc23)cc1 | -2.36
CCN(CC(=O)Nc1ccc(NC(C)=O)cc1)C(=O)Cc1ccc(S(=O)(=O)N2CCOCC2)s1 | 12.9
O=C(COc1ccc(Cl)cc1Cl)OCn1nnc2ccccc2c1=O | 20
CCC(=O)Nc1ccc(NC(=S)NC(=O)/C=C/c2ccccc2)cc1 | 11.1
COc1ccc(-c2cc(C(=O)N3CCc4ccccc4C3)no2)cc1OC | 8.83
Cc1onc(C(=O)NN)c1-c1csc(COc2ccc(Cl)cc2)n1 | 3.39
COc1cccc(OCCn2cc(C=O)c3ccccc32)c1 | 20.4
CCOc1ccc(CCNC(=O)C(CCC(N)=O)NC(=O)OCc2ccccc2)cc1OCC (stereo not shown) | 5.68
CCOC(CNC(=O)c1ccc2c(c1)ncn2-c1cccc(F)c1)OCC | 0.423
C=CCn1cc(C(=O)NCCN(CC)CC)c(=O)c2cc(S(=O)(=O)N3CCCCCC3)ccc21 | -9.01

Compound | hERG current change (%, negative = inhibition) at 1uM [%]
COC(=O)CSc1nc2ccccc2c(=O)n1Cc1ccccc1 | 1.98
COc1ccc(NC(=O)CN(C)C(=O)c2c(C)nn(Cc3ccccc3)c2C)cc1 | 8.13
CC1Cc2cc(S(=O)(=O)NCCC(=O)N(C)Cc3ccccc3)ccc2N1C(=O)C1CC1 (stereo not shown) | 2.31
O=C(CCC(=O)N1CCOc2ccccc21)Nc1ccccc1Br | -10
O=C(COc1ccccc1Br)NCc1ccco1 | -7.49
Cc1ccc(OCC(=O)c2cc(C)n(Cc3ccco3)c2C)c([N+](=O)[O-])n1 | -4.25
CCCn1c(SCC(=O)OCC)nc(C(F)(F)F)cc1=O | 1.23
Cc1onc(C(=O)NN)c1C(=O)N1CCN(C(c2ccccc2)c2ccccc2)CC1 | 15.5
CC(=O)c1ccc2c(c1)OCCOCCOc1ccccc1OCCOCCO2 | -82.5
Cc1csc(SCc2c(C(=O)O)oc3ccccc23)n1 | 15.5
OC(COCc1cccs1)CN1CCN(c2ccccc2Cl)CC1 (stereo not shown) | -50.8
CCOC(=O)c1c(NC(=O)COC(=O)c2ccccn2)sc2c1CCC2 | 6.38
Nc1cc2c(cc1[N+](=O)[O-])OCO2 | 11.3
CC[C@]1(c2ccccc2OC)ON(c2ccccc2C(F)(F)F)C1=O | 13.8
Cc1sc2ncnc(OCC(=O)N3CC(=O)Nc4ccccc43)c2c1C | -0.969
CCOc1ccc(N/C(=C(/C(Cl)=C(Cl)Cl)[N+](=O)[O-])n2cncn2)cc1 | 5.63
Cn1c(CNC(=O)C(Cc2ccccc2)NC(=O)c2ccccc2F)cc(=O)n(C)c1=O (stereo not shown) | 20.5
CC1=CC2=NC(=O)/C(=C\c3ccc(-c4cccc(Cl)c4)o3)C(=N)N2O1 | 14.5
Cc1cc(NC(=S)NC(=O)c2ccccc2)ccc1-c1cc2ccccc2oc1=O | 13
O=C(O)CCNC(=O)OCC1c2ccccc2-c2ccccc21 | 1.64
COc1ccc(CNC(=O)CCNS(=O)(=O)c2ccc(Cl)cc2)cc1 | -5.44
O=C1C(Cc2ccc(F)cc2)SC(=Nc2ccccc2)N1c1ccccc1 (stereo not shown) | 7.84

Compound | hERG current change (%, negative = inhibition) at 1uM [%]
Oc1ccccc1C1=Nc2nc3ccccc3n2C(c2ccccc2)C1 (stereo not shown) | 9.3
O=C(/C=C\NCC(=O)c1ccccc1)c1ccc2ccccc2c1 | 13.1
O=C(COC(=O)c1ccc(O)cc1)Nc1ncc(Cl)cc1Cl | 4.84
Cc1ccc(NC(=O)c2ccc3nccnc3c2)c(C)c1 | 7.98
O=C(CSc1nnc(NC(=O)c2ccc(F)cc2F)s1)NC1CCCC1 | 18.7
CN(CC(=O)Nc1ccc(F)cc1)C(=O)CCc1nc2sc3c(c2c(=O)[nH]1)CCCC3 | -5.63
C#Cc1ccc([C@H]2C=C(C(=O)Nc3ccccc3)O[C@@H](OCc3ccc(CO)cc3)C2)cc1 | 7.58
Cc1cc(C(=O)COC(=O)C2=NNC(=O)CC2)c(C)n1-c1ccccc1 | -10.7
Cc1cc(C)cc(NC(=O)c2cccc3c2C(=O)N(C2CCCCC2)C3)c1 | 8.27
CC(C)C1CCN(C(=O)C2CCC(=O)N(CCc3ccc(Cl)cc3)C2)CC1 (stereo not shown) | -12.6
Cn1c(=O)c2c(SCC(=O)N3CCCc4ccccc43)nc(C3CC3)nc2n(C)c1=O | -6.07
CCOC(=O)C1Nc2c(cc(C(F)(F)F)cc2[N+](=O)[O-])C2c3ccccc3CC12 (stereo not shown) | 4.87
Cc1ccc(NC(=S)NCC2CCCO2)cc1 (stereo not shown) | -29.3
CC(=O)Nc1cccc(NC(=O)CSc2n[nH]c(-c3ccccc3)n2)c1 | 11.8
CS(=O)(=O)N1CCC(C(=O)Nc2cc(C(F)(F)F)ccc2Cl)CC1 | 10.9
COc1ccc(CN(C)C(=O)Cc2c[nH]c3ccccc23)c(OC)c1OC | 9.45
Cc1ccc(-n2c(SCC(=O)NCc3ccco3)nc3c(sc4ccccc43)c2=O)cc1 | 13.2
Cc1cc(CN(C)C(=O)CC2C(=O)NCCN2Cc2ccc(F)c(F)c2)on1 (stereo not shown) | 9.57
CN(CC1CCOCC1)C(=O)CC1C(=O)NCCN1Cc1ccccc1F (stereo not shown) | 13.3
O=C(CC(CC(=O)c1ccc(Br)cc1)c1cccnc1)c1ccc(Br)cc1 | 16.1
COc1ccc(CCC2CCNCC2)cc1.Cl | 12.7
COc1ccc(OCC(=O)Nc2ccc(S(=O)(=O)N3CCN(C)CC3)cc2)cc1 | 10.3

Compound | hERG current change (%, negative = inhibition) at 1uM [%]
Clc1ccc(SCc2cc(Cl)nc(-c3ccccc3)n2)cc1 | 16.5
Cc1cc(-c2cc(-c3ccc(Cl)cc3)nc(N)c2C#N)co1 | 7.72
Cc1c(C(=O)N(Cc2cccc(Br)c2)C2CCS(=O)(=O)C2)oc2ccc(F)cc12 (stereo not shown) | 9.61
N#Cc1cc(C#N)c(N2CCN(c3cccc(Cl)n3)CC2)nc1N | -3.52
CC1=NN(C(C#N)c2c(C)nn(Cc3ccccc3)c2C)C(C)(C)C1 (stereo not shown) | 8.87
CCOC(=O)c1ccc(NCc2ccncc2)cc1 | 6.86
O=S(=O)(c1ccc(Cl)cc1Cl)N1CCCC1c1cccnc1 (stereo not shown) | 10.7
Cc1cc(C(=O)N2CCCC(N3CCN(c4cccc(C(F)(F)F)c4)CC3)C2)nn1C (stereo not shown) | -1.14
O=C(Cc1cccc2ccccc12)NCC1CCCO1 (stereo not shown) | 2.35
CCS(=O)(=O)N1CCC(C(=O)Oc2ccc(Cl)cc2)CC1 | 11.2
O=C(Nc1ccccc1)c1cc(S(=O)(=O)NCc2ccncc2)ccc1Cl | -5.71
COc1ccc(CNCCc2c[nH]c3ccccc23)cc1OC.O=C(O)C(=O)O | 2.69
O=C(CCC(=O)Nc1ccccc1)NNC(=O)C(c1ccccc1)c1ccccc1 | 3.09
O=C(C1CCCCC1)N1CCN(c2ncccn2)CC1 | 3.75
COc1ccc(CCNC2CCC(c3ccccc3)CC2)cc1 (stereo not shown) | -44.5
COCCN(CCOC)C(=O)C1CCN(c2ccc(S(=O)(=O)N3CCOCC3)cc2[N+](=O)[O-])CC1 | -2.9
Cc1nc2nc(SCC(=O)NCc3ccco3)nn2c(C)c1Cc1ccccc1 | -4.46
COc1ccc(Cl)cc1NS(=O)(=O)N1CCOCC1 | 9.8
N#Cc1cccc(OCC(=O)NC(=O)NCc2ccccc2)c1 | -1.76
COCCNC(=O)CN(C)S(=O)(=O)c1ccc(Br)cc1 | 3.19
C=CCn1c(O)c(C=NCCCn2ccnc2)c(=O)[nH]c1=O | 14.2
COc1cccc(N(C(=O)Cn2nnc(-c3cccs3)n2)C(C(=O)NC(C)C)c2ccc(C)o2)c1 (stereo not shown) | 9.65
